Results published in the supplement of paper PMC3334620.
The full ranking holds about 33,000 sequences; the median of “E-score (-0.5 to 0.5)” is about -0.032, and the highest 2% start at about 0.36. The list shows a part of the results.

The sequences below were run against T1, Sko1 (UniProt Q02100) (assay: PBM E-score (8-mer binding enrichment) (E-score (-0.5 to 0.5)); higher = stronger / more preferred TF binding; most listed sequences are background and not binding sites). Conditions: protein concentration: 200 nM; construct: GST-full length.
T1 sequence: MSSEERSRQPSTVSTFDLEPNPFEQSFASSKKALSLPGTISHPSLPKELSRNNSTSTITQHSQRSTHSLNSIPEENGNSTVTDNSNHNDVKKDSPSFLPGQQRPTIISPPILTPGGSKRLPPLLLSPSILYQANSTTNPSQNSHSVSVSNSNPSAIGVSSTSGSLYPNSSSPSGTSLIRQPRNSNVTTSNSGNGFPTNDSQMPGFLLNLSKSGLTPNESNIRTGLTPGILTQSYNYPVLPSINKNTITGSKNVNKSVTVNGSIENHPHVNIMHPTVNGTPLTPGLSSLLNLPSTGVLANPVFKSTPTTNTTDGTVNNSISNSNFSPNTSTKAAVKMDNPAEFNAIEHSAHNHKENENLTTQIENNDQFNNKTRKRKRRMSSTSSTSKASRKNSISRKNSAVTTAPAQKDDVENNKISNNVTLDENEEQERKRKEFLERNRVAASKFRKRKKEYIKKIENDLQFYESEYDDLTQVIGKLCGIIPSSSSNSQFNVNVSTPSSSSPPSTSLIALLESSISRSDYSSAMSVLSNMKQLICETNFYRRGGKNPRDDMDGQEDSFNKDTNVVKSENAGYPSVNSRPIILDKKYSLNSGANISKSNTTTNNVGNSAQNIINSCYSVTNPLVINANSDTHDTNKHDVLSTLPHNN
Outline: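 Yeast transcription factors, full-length or as DNA-binding domains, were expressed with a GST tag using PURExpress in vitro transcription/translation. At about 100-200 nM they were applied to universal all-10-mer Agilent arrays, double-stranded by primer extension on fresh or once-stripped slides. Fluorescent anti-GST detected bound protein, and masliner normalised the scans. E-scores for ungapped eight-base words, pooled with reverse complements, came from the Universal PBM Analysis Suite.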

Sequence	PBM E-score
ACTGCGTG	0.131
GCAATCTA	0.0367
CAGCGATC	-0.12
TGATAACA	0.285
GCAGCTCA	-0.116
CCACCTGA	-0.0745
GGAACGCC	-0.256
ACGGCCTG	-0.186
AACACCGC	-0.196
AAAATCAA	0.0427
AGTTCGGA	-0.198
ATCACTAC	0.162
TGTCTTAA	-0.00601
ATTTGCAA	0.122
CTGGTCTC	-0.342
GAACTGAC	0.0788
ACCCATTG	-0.145
ACGTTGCC	0.185
GCAACCAC	-0.0517
AGTTGGAG	-0.0727
CCACTAAA	-0.0135
ACAACGCA	0.205

Sequence	PBM E-score
AATACCCC	-0.21
ATTTGATC	-0.0325
CGCCTCAG	-0.182
CCTAGAAC	-0.101
AAAACCAG	-0.0997
ATGGAATA	0.131
CCTATCTA	-0.0869
ATCCGTCG	-0.197
TAATCCCA	-0.00312
GATTGGAC	-0.167
ACGGTGAT	-0.137
AGCAACAA	0.0966
CAACGCGC	0.15
AATATCTC	0.0336
ACTCATTA	0.123
ACAGAGCA	-0.0386
GTCCTCGA	0.121
ATATTGCG	0.278
ATTTATGC	0.092
GACAAAAC	0.118
CTAAGGAC	-0.166
TTAAGTAA	0.154

Sequence	PBM E-score
AGTGTATG	0.0549
AGGCGTCA	0.256
ACGCTTAG	0.103
AGACTACA	-0.158
AATCGTCT	0.0851
CAGGTTCG	-0.123
ATTCCGAG	-0.0886
AAGCATTC	0.0283
CGGGGACC	-0.306
CCAGCTCG	-0.129
TCATACAA	0.128
ATATTCTG	0.0884
CTATTGAA	0.0932
CGGAGGCC	-0.359
CACTGGCA	-0.158
AATACGTC	0.464
CTTACGCA	0.427
CTAAGGTA	-0.0873
ATTACATC	0.403
ATTAGCGA	0.151
ACTTGTCC	-0.107
AGATAAGG	-0.0819

Sequence	PBM E-score
GGTAGCTA	-0.134
TAGTGACA	0.202
AGGTATAT	0.184
ACAAGCCT	-0.135
GTCTGCAA	0.0812
AGGGGATC	-0.259
ATTGTCAG	0.146
AGCGACCC	-0.277
ACTGTACC	-0.0674
GAGAGACA	-0.329
CGTAATCC	0.405
AGCCGCAG	-0.223
GACGAATA	0.297
CGTACAGA	0.249
AAGGAATG	-0.108
ATCTTCAA	0.197
AATATGAG	0.146
ATCTAGCC	-0.196
ACATTGAA	0.166
CAGACTCG	-0.167
ACACGCTC	0.0423
GGGGCGCA	-0.146

Sequence	PBM E-score
CTTGCCGA	-0.104
ATAACCTA	0.0966
ATTAGCTC	0.0776
CCGCACCG	-0.0369
ACCTCAGC	-0.0683
AGGGCATG	-0.28
AGCCTACA	-0.0669
ACCGTGAA	0.03
CACTCGCC	-0.148
GGGCCTGA	-0.149
CCGGTACA	-0.101
CAACAGCC	-0.00729
CACGAAGA	0.131
ATGTCATC	0.389
ACAGGTGC	-0.221
ACGGGCGA	-0.15
ACGTAGTA	0.446
AGTGCCAG	-0.271
ACTGATGG	-0.155
AGAGGGGA	-0.324
GTCTCACA	0.0584
